From PubChem BioAssay AID1030 (National Center for Advancing Translational Sciences (NCATS), 2008)
Hit rate of the full screen: of about 220,000 compounds, about 16,000 (7.3%) were called active. The shares of active, inactive and inconclusive entries below differ from those in the screen. Calls come from the whole dose curve; as a rule, active = well fitted inhibition curve with a large enough effect (not every such curve was filed as active); inconclusive = small, poorly fitted or top-dose-only effect, or another doubt; inactive = no such curve, though single readings can be large or run the other way. No potency is given beside an inconclusive call; the fits are too rough.

Target: Aldehyde dehydrogenase 1A1 (Homo sapiens) (UniProt P00352)
Assay: qHTS Assay for Inhibitors of Aldehyde Dehydrogenase 1 (ALDH1A1);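 for activity, negative = inhibition: plate controls were no enzyme wells and a reference inhibitor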
Settings: Purified ALDH1A1, NADH fluorescence, propionaldehyde substrate; series mostly up to 75.3 µM
Potency is the fitted concentration of half-maximal effect; tags give direction and shape of the fitted curve.

Chain of UniProt P00352 (P00352 whole entry, looked up): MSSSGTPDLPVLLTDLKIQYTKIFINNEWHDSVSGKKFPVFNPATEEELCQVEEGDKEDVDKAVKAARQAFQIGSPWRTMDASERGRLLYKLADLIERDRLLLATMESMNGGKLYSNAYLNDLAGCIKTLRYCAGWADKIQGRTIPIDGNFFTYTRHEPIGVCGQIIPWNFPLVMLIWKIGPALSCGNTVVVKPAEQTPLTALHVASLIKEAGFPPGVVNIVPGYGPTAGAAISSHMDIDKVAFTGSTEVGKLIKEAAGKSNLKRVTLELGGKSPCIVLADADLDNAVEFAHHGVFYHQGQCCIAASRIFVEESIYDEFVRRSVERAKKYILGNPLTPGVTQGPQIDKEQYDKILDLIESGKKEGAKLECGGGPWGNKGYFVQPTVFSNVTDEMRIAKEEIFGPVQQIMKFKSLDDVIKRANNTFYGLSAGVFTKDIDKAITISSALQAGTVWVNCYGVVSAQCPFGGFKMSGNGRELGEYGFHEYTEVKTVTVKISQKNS

| Compound | Potency | activity, negative = inhibition |
| --- | --- | --- |
| COC(=O)c1ccc(N=NNc2ccc(C(=O)OC)cc2)cc1 | inactive | – |
| CC(C)(C)C(=O)N1CCN(c2ccc([N+](=O)[O-])c(NCc3cccnc3)c2)CC1 | inconclusive [inhibitor, single point] | – |
| CC#C[C@@]1(O)CC[C@H]2[C@@H]3CCC4=CC(=O)CCC4=C3[C@H](c3ccc(N(C)C)cc3)C[C@]21C | inactive | – |
| CCNC(=O)CSc1nc(-c2ccc(F)cc2)cs1 | inconclusive [inhibitor, single point] | – |
| CC(C)c1cc(N=NC(N)=O)cc(C(C)C)c1O | inconclusive [inhibitor, partial curve] | – |
| COc1ccccc1N1CCN(Cc2cc(Br)c(O)c3ncccc23)CC1 | inconclusive [inhibitor, single point] | – |
| O=C(OC1CCOC1=O)c1cc(-c2ccc(Br)cc2)nc2ccccc12 (centres undefined) | inconclusive [inhibitor, single point] | – |
| CCCCc1ccc(C2C(C#N)=C(N)SC(N)=C2C#N)s1 | inconclusive [inhibitor, partial curve] | – |
| Clc1ccc(CSc2nccn2Cc2ccccc2)cc1 | inconclusive [inhibitor, single point] | – |
| CCOC(=O)c1cc2c(N)c(C(=O)c3cc(C#N)c(SC)nc3C)sc2nc1C | inconclusive [inhibitor, full curve] | – |
| CCN=C1S/C(=C\c2cn(CC(=O)NCCOC)c3ccccc23)C(=O)N1CC | inconclusive [inhibitor, single point] | – |
| CCOC(=O)N1CCC(Nc2cc(C)nc3c(-c4ccccc4OC)c(C)nn23)CC1 | inactive | – |
| CCN(CC)S(=O)(=O)c1ccc(OC)c(NC(=O)c2cn(CC)c3nc(C)ccc3c2=O)c1 | inactive | – |
| CCN1C(=O)c2ccc(C(=O)NCc3ccc4c(c3)OCO4)cc2C1=O | inconclusive [inhibitor, partial curve] | – |
| Cn1c(=O)n2n(c1=O)[C@H]1[C@H](O)[C@H]3O[C@@H]3/C(=N/OC[C@@H](O)COCc3ccco3)[C@@H]1CC2 | – | inactive: 2.72% [at 13.5 µM] |
| COC(=O)c1sccc1NC(=O)c1ccc(OC)c([N+](=O)[O-])c1 | inconclusive [inhibitor, full curve, poor fit] | – |
| Oc1ccc2ccccc2c1C=NCc1cn2ccsc2n1 | inconclusive [inhibitor, single point] | – |
| C[C@@H]1O[C@H](O[C@@H]2[C@H](C)O[C@H](O[C@@H]3[C@H](C)O[C@H](O[C@H]4CC[C@]5(C)[C@@H](CC[C@@H]6[C@H]5C[C@@H](O)[C@]5(C)[C@@H](C7=CC(=O)OC7)CC[C@]65O)C4)C[C@@H]3O)C[C@@H]2O)C[C@H](O)[C@@H]1O | inactive | – |
| COc1ccc(NC(=O)CSc2nc3[nH]ncc3c(=O)n2-c2ccccc2OC)cc1OC | inconclusive [inhibitor, single point] | – |
| CCOC(=O)c1sc(NC(=O)CCN2CCCCCC2)c(C(=O)OCC)c1C | active: 2.51 µM | – |

| Compound | Potency | activity, negative = inhibition |
| --- | --- | --- |
| Cc1ccc(CNC(=O)CN2C(=O)C3(OCCCO3)c3ccccc32)cc1 | inconclusive [inhibitor, single point] | – |
| CCN(CC)CCCC(C)n1c(-c2ccccc2)nc2c(N3CCOCC3)nc(C)nc21 (centres undefined) | inconclusive [inhibitor, single point] | – |
| O=C(N/N=C/c1ccc(N2CCOCC2)c([N+](=O)[O-])c1)c1ccc(F)cc1 | active: 5.01 µM | – |
| O=S(=O)(Nc1nccs1)c1cnc(Cl)c(Br)c1 | inconclusive [inhibitor, single point] | – |
| O=C(C(c1ccccc1)c1ccccc1)N(Cc1ccco1)C1CCS(=O)(=O)C1 (centres undefined) | inactive | – |
| Cc1cc(C)c2[nH]c(=O)c(CN(CC3CCCO3)S(=O)(=O)c3ccc4c(c3)OCCO4)cc2c1 (centres undefined) | inconclusive [inhibitor, partial curve] | – |
| CCCc1[nH]nc2c1C(c1ccc(OC)c(CSC3=NCCS3)c1)C(C#N)=C(N)O2 (centres undefined) | inconclusive [inhibitor, single point] | – |
| CCOC(=O)c1ccc(NC(=O)CN(Cc2ccc(Cl)cc2)S(C)(=O)=O)cc1 | inconclusive [inhibitor, single point] | – |
| CCOC(=O)CSc1nc2ccc(N3CCOCC3)cc2c(=O)n1Cc1ccc2c(c1)OCO2 | inconclusive [inhibitor, partial curve] | – |
| CCOc1cc(S(=O)(=O)N2CCN(Cc3ccccc3)CC2)ccc1Br | inactive | – |
| CCn1c(NCc2cc(Br)ccc2NS(=O)(=O)c2ccc(C)cc2)nc2ccccc21 | inactive | – |
| Cc1ccccc1/C=C/C1=NCCN1 | inconclusive [inhibitor, single point] | – |
| Cc1ccc(C)c2[nH]c(=O)c(CCNC(=O)C(C)(C)C)cc12 | inconclusive [inhibitor, full curve] | – |
| Cc1ccc2[nH]c(=O)c3cc(C(=O)N(CCCOC(C)C)Cc4ccco4)sc3c2c1 | inconclusive [inhibitor, partial curve] | – |
| COC(=O)c1c(NC(=O)CSc2nnnn2-c2ccccc2)sc2c1CCC(C(C)(C)C)C2 (centres undefined) | active: 12.6 µM | – |
| CCN(CC)S(=O)(=O)c1cccc(-c2nnc(SCc3nnc(-c4cccs4)o3)n2N)c1 | inconclusive [inhibitor, single point] | – |
| Cc1cc(=O)n2ccccc2c1C#N | inconclusive [inhibitor, partial curve] | – |
| COc1ccc(-n2nnnc2SCC(=O)Nc2nc3c(s2)CCCC3)cc1 | inconclusive [inhibitor, single point] | – |
| NCCC[C@@H](CC(=O)N[C@@H]1CCCC[C@H]1C(=O)N[C@H](CC(=O)N[C@@H](CCC(=O)O)CC(=O)O)Cc1c[nH]c2ccccc12)NC(=O)C[C@H](CO)NC(=O)[C@@H]1CCCC[C@H]1N | inconclusive [inhibitor, single point] | – |
